{
  "source": "PubChem BioAssay AID1240",
  "about": "(Sanford-Burnham Center for Chemical Genomics, 2008)",
  "note": "Out of some 50,000 compounds screened, about 800 (1.6%) showed an effect of 50% or more. This is one part of the list.",
  "data": [
    {"biological_target": "Bcl-2-like protein 10 (Homo sapiens) (UniProt Q9HD36)", "sequence (Q9HD36 whole entry, looked up)": "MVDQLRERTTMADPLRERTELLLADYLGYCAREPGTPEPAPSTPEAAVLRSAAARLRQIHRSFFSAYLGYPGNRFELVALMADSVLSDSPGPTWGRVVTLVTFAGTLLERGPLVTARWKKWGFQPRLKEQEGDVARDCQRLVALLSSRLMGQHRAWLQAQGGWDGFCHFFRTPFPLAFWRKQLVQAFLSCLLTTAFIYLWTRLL", "experiment": "Phenotype converters, Bcl-B/TR3 peptide binding displacement, primary biochemical FP (AID 1240);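 note: 0% = Bcl-B with tracer peptide and DMSO and 100% = tracer peptide lacking Bcl-B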", "settings": "GST-Bcl-B / FITC-TR3 peptide fluorescence polarization; stronger effect = higher value; compound at 3.75 mg/L", "units": {"displacement": "%"}, "values": [
      {"smiles": "CC1CCC(C(C)C)C(OC(=O)c2ccc([N+](=O)[O-])cc2)C1", "note": "(centres undefined)", "displacement": 1.8},
      {"smiles": "Cc1ccc(N(CC(=O)Nc2ccc(Oc3ccccc3)cc2)S(C)(=O)=O)cc1", "displacement": 3.6},
      {"smiles": "CN1CCN(Cc2c(O)ccc3cc(-c4nc5ccccc5[nH]4)c(=O)oc23)CC1", "displacement": 125},
      {"smiles": "O=C(NCCOc1ccccc1F)c1cccs1", "displacement": -12.9},
      {"smiles": "Cc1cccc(N2C(=O)S/C(=C/c3ccc(N(C)C)cc3)C2=O)c1", "displacement": 95.7},
      {"smiles": "COC(=O)c1cc(NC(=O)COc2ccccc2C)cc(C(=O)OC)c1", "displacement": -2.3},
      {"smiles": "CC(=O)/C=C/c1ccc(-c2cc(Cl)ccc2Cl)o1", "displacement": -19.8},
      {"smiles": "COC(=O)C1C(O)=C(C=Nc2ccccc2C)C(=O)CC1(C)C", "note": "(centres undefined)", "displacement": 3.7},
      {"smiles": "COc1ccc(-c2ccc(/C=C/c3cc(C(F)(F)F)[nH]c(=O)n3)o2)cc1Cl", "displacement": 7.9},
      {"smiles": "O=C1c2ccccc2C(=O)C1(c1ccccc1)[N+](=O)[O-]", "displacement": 16.4},
      {"smiles": "Cc1cc(=O)[nH]c(N/N=C/c2cccnc2)n1", "displacement": -12},
      {"smiles": "CC(C)N(Cc1c(O)ccc2c(=O)c(-c3ccccc3)coc12)C(C)C", "displacement": -12.7},
      {"smiles": "Cc1ccc2nc(-c3ccc([N+](=O)[O-])cc3)cn2c1", "displacement": 15.4},
      {"smiles": "Cc1cccc(C)c1NC(=O)CSCc1c(Cl)cccc1Cl", "displacement": -4.9},
      {"smiles": "CSCCC(NC(=O)/C(=C\\c1ccco1)NC(=O)c1ccco1)C(=O)O", "note": "(centres undefined)", "displacement": -0.3},
      {"smiles": "CCOc1ccccc1NC(=O)CN(c1ccc(C)cc1)S(=O)(=O)c1ccc(SC)cc1", "displacement": 3.9},
      {"smiles": "Cc1ccccc1OCCCCCn1ccnc1", "displacement": -6.6},
      {"smiles": "O=C(CCc1n[nH]c(=O)[nH]c1=O)N/N=C/c1ccc(C(F)(F)F)cc1", "displacement": 0.8},
      {"smiles": "CCOC(=O)c1c(NC(=O)c2ccc(Cl)cc2Cl)sc(C(=O)Nc2ccccc2C)c1C", "displacement": 1.3},
      {"smiles": "CCCOC(=O)c1c(-c2ccc(OCC)cc2)csc1N", "displacement": -4.5},
      {"smiles": "COC(=O)c1ccccc1NC(=O)CN(c1ccc(OC)cc1OC)S(C)(=O)=O", "displacement": -7},
      {"smiles": "COc1cc(C2NC(=O)NC(C)=C2C(=O)OCc2ccc3c(c2)OCO3)cc(OC)c1OC", "note": "(centres undefined)", "displacement": 6.6},
      {"smiles": "CC(NC(=O)CN1CCN(C)CC1)C1CC2CCC1C2", "note": "(centres undefined)", "displacement": -7.4},
      {"smiles": "O=C(NN1C(=O)CSC1c1ccc(Br)cc1)c1ccccc1", "note": "(centres undefined)", "displacement": 11.1},
      {"smiles": "Cc1[nH]n(-c2ccc([N+](=O)[O-])cc2)c(=O)c1C=NCCc1c[nH]c2ccccc12", "displacement": -5.7},
      {"smiles": "O=C(CSc1nnnn1-c1ccccc1)Nc1ccccc1[N+](=O)[O-]", "displacement": 1.7},
      {"smiles": "CCOc1ccc(C(=O)Nc2cccc(OC)c2)cc1OCC", "displacement": 13.6},
      {"smiles": "N#CCNC1CC(=O)N(c2ccc(Br)cc2)C1=O", "note": "(centres undefined)", "displacement": -10.9},
      {"smiles": "CCOC(=O)c1c(NC(=O)CCC(=O)OC)sc(C)c1C", "displacement": 11.7},
      {"smiles": "Cc1cc(C)c(S(=O)(=O)Nc2cc(Cl)c3oc4c(c3c2)C(=O)CCC4)c(C)c1", "displacement": 3.6},
      {"smiles": "Cc1ccc(S(=O)(=O)NNC(=O)c2ccncc2)cc1[N+](=O)[O-]", "displacement": -17.1},
      {"smiles": "CCc1c(C)sc(NC(=O)C2CCCCC2C(=O)O)c1C#N", "note": "(centres undefined)", "displacement": -14.9},
      {"smiles": "COC(=O)c1ccccc1NC(=O)c1cncc(Br)c1", "displacement": 15.2},
      {"smiles": "Cc1ccc(SCC(=O)Nc2ccccc2)cc1", "displacement": 16.1},
      {"smiles": "COc1ccccc1-n1c(CCN2C(=O)c3ccccc3C2=O)nc2ccccc2c1=O", "displacement": -0.4},
      {"smiles": "CC(=O)NC1C(OCCOc2ccc(Cl)cc2Cl)OC(COC(C)=O)C(OC(C)=O)C1OC(C)=O", "note": "(centres undefined)", "displacement": 9.1},
      {"smiles": "COc1cccc(-c2csc(-c3cc4cccc(OC)c4oc3=O)n2)c1", "displacement": -23.1},
      {"smiles": "CCOc1ccccc1NC(=O)C(=O)N/N=C/c1ccc(C)o1", "displacement": -13},
      {"smiles": "CCOc1ccc2nc(SCC(C)=O)sc2c1", "displacement": -6.8},
      {"smiles": "COc1ccc(N(CC(=O)NCCc2ccc(OC)c(OC)c2)S(=O)(=O)c2ccccc2)cc1", "displacement": -9.6},
      {"smiles": "CCOC(=O)C(NC(=O)CCC(=O)Nc1ccc(S(N)(=O)=O)cc1)C(O)c1ccccc1", "note": "(centres undefined)", "displacement": 7.9},
      {"smiles": "CCOC(=O)c1c(OS(=O)(=O)c2ccc(C)cc2)c(C=O)n(C)c1C", "displacement": -9.8},
      {"smiles": "CCN(CC)c1ccc(C=NN2CCN(Cc3ccccc3)CC2)cc1", "displacement": -10.8},
      {"smiles": "CC1=NNC(=O)C1CCC(=O)N/N=C/c1c(Cl)cccc1Cl", "note": "(centres undefined)", "displacement": -12.7},
      {"smiles": "Cc1ccc(S(=O)(=O)Oc2cccc(/C=C3/SC(=S)N(C)C3=O)c2)cc1", "displacement": -0.6},
      {"smiles": "O=C(O)CCCCCN1C(=O)C(=O)/C(=C(/O)c2ccc(Cl)cc2)C1c1ccc(O)cc1", "note": "(centres undefined)", "displacement": -3.9},
      {"smiles": "O=C(Nc1cccc(NC(=O)c2cccc(Cl)c2)c1)c1ccc([N+](=O)[O-])cc1", "displacement": 2.8},
      {"smiles": "CC(C)(C)NCCOc1ccc(Br)cc1", "displacement": -5.7},
      {"smiles": "Cc1cc(C(=O)n2cnc3c(N)ncnc32)co1", "displacement": 12.2},
      {"smiles": "CCOC(=O)c1cnc2c(C)c(-c3ccccc3)[nH]n2c1=O", "displacement": 20.2},
      {"smiles": "COc1cccc(-c2nnc(-c3ccc(OC)c(OC)c3)o2)c1", "displacement": 29.4},
      {"smiles": "O=C(Nc1ccc(I)cc1)C(Cc1ccccc1)N1C(=O)c2ccccc2C1=O", "note": "(centres undefined)", "displacement": 5.4},
      {"smiles": "COC(=O)c1nn2c(C(F)(F)F)cc(-c3ccccc3)nc2c1Br", "displacement": -4.8},
      {"smiles": "Cc1ccc(OCc2nnc(NC(=O)Nc3cccc(Cl)c3)s2)c(C)c1", "displacement": 4.5},
      {"smiles": "CN(C)c1ccc(/C=C/C(=O)c2ccc3c(c2)OCCO3)cc1", "displacement": -18.8},
      {"smiles": "CC(=O)Oc1ccc(N2C(=O)C3C4C=CC(C4=C(C)C)C3C2=O)cc1", "note": "(centres undefined)", "displacement": -3.2},
      {"smiles": "COC(=O)C1=C(C)N(Cc2ccco2)C(=O)/C1=C\\c1ccc(OC)c([N+](=O)[O-])c1", "displacement": -14},
      {"smiles": "Cc1cccc(OCC(=O)NCc2ccccn2)c1", "displacement": -2.7},
      {"smiles": "CCc1cc(/C(O)=C/c2nc3ccccc3n2C)c(O)cc1OC(=O)C(C)(C)C", "displacement": 12.7},
      {"smiles": "O=C(Nc1ccccc1C(=O)Nc1ccccn1)c1ccco1", "displacement": 9.8},
      {"smiles": "O=C(CSc1nnnn1-c1ccccc1F)Nc1ccc2c(c1)OCO2", "displacement": -2.6},
      {"smiles": "O=C(CSc1nnc2c(n1)[nH]c1ccccc12)Nc1ccccc1", "displacement": 19.4},
      {"smiles": "CCCOc1cccc(NC(=O)c2cc(C)oc2C)c1", "displacement": 8.3},
      {"smiles": "COCCCNC(=O)/C(=C\\C=C\\c1ccccc1)NC(=O)c1ccccc1", "displacement": 14.1},
      {"smiles": "Cc1cc(NS(=O)(=O)c2ccc(Nc3nc(-c4ccc(Cl)cc4)cs3)cc2)no1", "displacement": -7.7},
      {"smiles": "C(=NN1CCN(c2ccccn2)CC1)c1cccc(OCc2ccccc2)c1", "displacement": -6.7},
      {"smiles": "CC(=O)N1c2ccc3ccccc3c2C2C=CCC2C1c1ccc(F)cc1", "note": "(centres undefined)", "displacement": 13.5},
      {"smiles": "O=C(Nc1cc(C(F)(F)F)cc(C(F)(F)F)c1)c1ccc([N+](=O)[O-])o1", "displacement": -0.8},
      {"smiles": "Cc1ccc2[nH]c(=O)c(C(=O)/C=C\\c3ccccc3)c(-c3ccccc3)c2c1", "displacement": -9.8}
    ]}
  ]
}
